Laboratory results: paper PMC4336329 (PLoS ONE, 2015)
The whole screen tested about 310,000 compounds, of which about 14,000 (4.5%) showed an effect of 50% or more. The effect is printed as a negative number. The list shows a part of the results.

Each compound was assayed against human ether-à-go-go-related gene (hERG) potassium channel (human, UniProt Q12809) (assay: primary screen, population patch clamp on CHO cells stably expressing hERG).
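Further: peak tail current of the secondary pulse compared with the same well before compound.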

Chain of human ether-à-go-go-related gene (hERG) potassium channel (Q12809 whole entry, looked up): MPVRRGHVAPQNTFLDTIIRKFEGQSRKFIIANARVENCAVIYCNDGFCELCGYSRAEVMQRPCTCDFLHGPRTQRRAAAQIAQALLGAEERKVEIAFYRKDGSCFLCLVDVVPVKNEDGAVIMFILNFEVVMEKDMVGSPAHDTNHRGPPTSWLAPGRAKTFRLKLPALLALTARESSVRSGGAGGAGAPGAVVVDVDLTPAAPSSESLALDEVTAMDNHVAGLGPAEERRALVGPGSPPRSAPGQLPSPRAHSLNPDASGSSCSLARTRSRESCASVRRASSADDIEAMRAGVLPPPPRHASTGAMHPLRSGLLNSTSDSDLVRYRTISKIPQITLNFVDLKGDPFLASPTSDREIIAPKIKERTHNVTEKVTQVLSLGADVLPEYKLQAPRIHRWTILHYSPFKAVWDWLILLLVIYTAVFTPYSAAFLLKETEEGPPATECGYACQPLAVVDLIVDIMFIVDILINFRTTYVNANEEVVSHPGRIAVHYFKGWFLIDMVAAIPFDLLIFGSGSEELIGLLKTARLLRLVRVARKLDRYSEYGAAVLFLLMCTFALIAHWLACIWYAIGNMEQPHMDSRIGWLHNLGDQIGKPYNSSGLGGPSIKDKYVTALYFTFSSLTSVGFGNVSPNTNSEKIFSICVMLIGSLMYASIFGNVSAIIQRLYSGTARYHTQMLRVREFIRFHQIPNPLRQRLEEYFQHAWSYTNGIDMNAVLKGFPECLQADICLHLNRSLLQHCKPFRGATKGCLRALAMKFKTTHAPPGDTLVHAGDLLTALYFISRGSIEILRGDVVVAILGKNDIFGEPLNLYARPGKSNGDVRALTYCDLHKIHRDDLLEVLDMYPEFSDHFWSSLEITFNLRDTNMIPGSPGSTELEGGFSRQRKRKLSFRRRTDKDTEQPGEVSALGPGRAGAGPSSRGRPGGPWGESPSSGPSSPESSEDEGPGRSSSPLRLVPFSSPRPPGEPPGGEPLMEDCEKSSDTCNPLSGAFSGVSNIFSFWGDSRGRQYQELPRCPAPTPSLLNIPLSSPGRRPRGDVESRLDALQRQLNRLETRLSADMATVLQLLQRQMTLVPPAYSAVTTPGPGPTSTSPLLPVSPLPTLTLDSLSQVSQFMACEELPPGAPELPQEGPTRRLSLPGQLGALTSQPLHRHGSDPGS

Row | Compound | hERG current change (%, negative = inhibition) at 10uM [%]
1 | O=C(NCc1ccccn1)C1CCN(Cc2cnn(-c3ccccc3)c2-n2cccc2)CC1 | -24.1
2 | COc1ccc(S(=O)(=O)Nc2ccc(OCC(=O)O)cc2)c2ccccc12 | 24.6
3 | CCc1nc2cccnc2n1-c1ccc(CC(=O)NC(C)CC)cc1 (centres unmarked) | 19
4 | CC(c1ccccc1)N(CCC(c1ccccc1)C1CCOC(C)(C)C1)C(=O)c1ccco1 (centres unmarked) | -22.2
5 | O=C(CC(c1ccc(F)cc1)c1ccco1)N1CCOCC1 (centres unmarked) | -18.4
6 | CCc1nccn1CCC(=O)NC1CC(C)(C)Cc2c1cnn2-c1cccc(F)c1 (centres unmarked) | -5.48
7 | COc1ccccc1N(C(=O)c1ccco1)C(C(=O)NC1CCCC1)c1ccc(N2CCOCC2)cc1 (centres unmarked) | -11.4
8 | Cc1cccc(-n2c(O)c(C=Nc3ccc(Br)cn3)c(=O)[nH]c2=O)c1 | 20.2
9 | CC1CCc2c(sc3nc(CSc4n[nH]c(N)n4)[nH]c(=O)c23)C1 (centres unmarked) | -19.4
10 | O=C1CCC(C(=O)N2CCN(c3ccccc3)CC2)CN1CC1CCCCC1 (centres unmarked) | -27.5
11 | NC(=O)c1ccc(NC(=O)COC(=O)/C=C/c2cn(-c3ccccc3)nc2-c2cccnc2)cc1 | 0.231
12 | Cc1ccc(/C=C/C(=O)N2CCN(S(=O)(=O)c3cccs3)CC2)o1 | -5.96
13 | COc1ccc(S(=O)(=O)NCc2cccnc2)cc1NC(=O)c1ccc(Cl)cc1 | -52.2
14 | CC(C)Sc1nc2c(c(=O)[nH]c(=O)n2C)n1Cc1ccccc1 | -4.27
15 | Cc1ccc2nc3c(cc(C#N)c(=N)n3Cc3cccnc3)c(=O)n2c1 | -60.4
16 | CN(C(=O)COC(=O)c1ccc(Br)c([N+](=O)[O-])c1)c1c(N)n(Cc2ccccc2)c(=O)[nH]c1=O | 2.39
17 | C=CCn1c(SCc2ccc([N+](=O)[O-])cc2)nnc1C(C)NC(=O)c1ccccc1 (centres unmarked) | -54.5
18 | CCOC(=O)CSc1nc2c(c(=O)n(C)c(=O)n2C)n1Cc1ccccc1F | -21.4
19 | O=C(CN1CCN(c2ccc(F)cc2)CC1)Nc1ccc(F)c(F)c1 | -27.8
20 | CCOc1ccc(CN(C)C(=O)CNC(=O)c2sc3ccccc3c2Cl)cc1 | 14
21 | NC(=O)c1cc(-c2ccccc2)nc(Oc2ccccc2)n1 | -1.98
22 | O=C(CN1C(=O)NC2(CCOc3ccccc32)C1=O)c1ccc(Cl)cc1 (centres unmarked) | -43.5

Row | Compound | hERG current change (%, negative = inhibition) at 10uM [%]
23 | CSc1cccc(NC(=S)N2CCC(N(C)C3CCCCCC3)CC2)c1 | -62.9
24 | COc1cc(C(=O)NCC(=O)N/N=C(/C)c2ccc3c(c2)CCCC3)cc(OC)c1OC | 7.09
25 | COc1ccc(CC(=O)NC(C)(C)CC(C)=O)cc1OC | -2.76
26 | Fc1cc(F)c2nc(Nc3nc4cc5c(cc4s3)OCO5)sc2c1 | 15.2
27 | Cc1c(Cl)cccc1NS(=O)(=O)c1cccc2nsnc12 | -4.17
28 | Oc1ccc(/C=C/c2ccc3cccc(O)c3n2)cc1Br | 11.2
29 | CC1(C)CC2CC(C)(CN2C(=O)c2cc(-c3ccc(O)cc3)on2)C1 (centres unmarked) | -15.4
30 | CC(C)c1nc2oc3c(N(C)CCO)ncnc3c2c2c1CCC2 | -28.1
31 | CCn1c(CNC(=O)c2cccc(C)c2)nnc1SCC(=O)NC1CCCC1 | -11.8
32 | CCN(CC(=O)Nc1ccccc1C(F)(F)F)C(=O)C1CCN(C(=O)Nc2ccccc2)CC1 | -0.222
33 | Clc1cccc(NCc2nnc(SCc3ccccc3Cl)o2)c1 | 6.21
34 | O=C(c1cc2ccccc2o1)N1CCN(S(=O)(=O)c2ccc(F)c(F)c2F)CC1 | -6.88
35 | c1ccc2c(N3CCCC3)nc(-c3ccncc3)nc2c1 | -56.9
36 | CC1(C)Cc2c(c(N3CCOCC3)nc3sc4c(NCCN5CCOCC5)nnnc4c23)CS1 | -48
37 | CC(C)C(=O)Nc1ccc(C(=O)NCc2cccnc2)cc1 | -0.537
38 | CCOc1ccc(NC(=O)COC(=O)C2(C)CC2(Cl)Cl)c([N+](=O)[O-])c1 (centres unmarked) | -16.4
39 | O=C(N/N=C/c1ccc(O)cc1)c1ccc(NC(=O)c2ccccc2Br)cc1 | -4.47
40 | Cc1ccc(SCC(=O)Nc2nccs2)cc1 | 5.21
41 | CNc1nc(C)cc(C)c1S(=O)(=O)c1ccc(C)cc1 | 4.23
42 | Cc1cc(C)nc(N2CCC(C(=O)NCCc3ccc(Cl)cc3)CC2)n1 | 21.6
43 | CC1=NNC(=O)C1CCC(=O)N/N=C/c1ccc(C)cc1 (centres unmarked) | 4.3
44 | COC(=O)N1N=C(c2ccccc2)CC1(O)C(F)(F)F (centres unmarked) | 8.7

Row | Compound | hERG current change (%, negative = inhibition) at 10uM [%]
45 | O=C(CN1C(=O)NC(Cc2c[nH]c3ccccc23)C1=O)Nc1ccccc1Br (centres unmarked) | -15.4
46 | O=C(O)c1cc(S(=O)(=O)N(Cc2ccccc2)c2ccccc2)ccc1Cl | 13.9
47 | CCOc1cc(NC(=S)NCCOC)c(OCC)cc1NC(=O)c1cccs1 | 14.2
48 | CCOC(=O)c1c(O)c2ccccc2n(-c2ccccc2)c1=O | 12.1
49 | COc1ccc(CCNC(=O)CN(C2CCCCC2)S(C)(=O)=O)cc1OC | -1.75
50 | COc1ccc(OCc2cc(C(=O)N3CCCC(OC)C3)no2)c2ccccc12 (centres unmarked) | 1.42
51 | COc1ccc(S(=O)(=O)N2CCC(N3CCCCC3)CC2)cc1 | -11.7
52 | C[N+]1(C)[C@@H]2CC(OC(=O)[C@H](CO)c3ccccc3)C[C@H]1[C@@H]1O[C@@H]12.[Br-] (some centres unmarked) | 15.8
53 | O=C(O)c1ccc(NC2OC[C@@H](O)[C@H](O)[C@H]2O)cc1 (some centres unmarked) | 0.116
54 | S=C(NCC1CCCO1)Nc1cccc2ccccc12 (centres unmarked) | 31.5
55 | COC(=O)c1ccc(OCCCCN(C)Cc2ccccc2)cc1.O=C(O)C(=O)O | -46.5
56 | c1ccc(C2=Nn3c(nnc3-c3cc(-c4ccccc4)n[nH]3)SC2)cc1 | 6.46
57 | COc1cc(OC)c(NC(=O)N2CCOCC2)cc1Cl | 6.39
58 | COC(=O)C(C)Sc1nc2c(cnn2-c2ccc(Cl)cc2)c(=O)[nH]1 (centres unmarked) | 8.69
59 | NC(=O)C1CCN(C(=O)c2ccc(Oc3ccccc3)cc2)CC1 | 0.308
60 | CN(CCOc1cccc2ccccc12)Cc1ccccc1.O=C(O)C(=O)O | 0.659
61 | Cc1nc2ccc(NC(=O)c3cccc(S(=O)(=O)N4CC(C)OC(C)C4)c3)cc2s1 (centres unmarked) | -7.16
62 | COC(=O)c1ccccc1NC(=O)N1CSC[C@H]1C(=O)OC | 15.8
63 | Cc1cc(C(=O)COC(=O)Cc2n[nH]c(=O)c3ccccc23)c(C)n1-c1ccc2c(c1)OCCO2 | 1.29
64 | CCOc1ccc(NC(=O)CCNC(=O)C2CCN(S(=O)(=O)c3ccccc3)CC2)cc1 | 0.172
65 | Cn1c(=O)c(-c2ccccc2N)nc2ccccc21 | 5.5
66 | Cc1ccc(N(Cc2cc3ccccc3[nH]c2=O)C(=O)c2cccs2)cc1C | 9.8

Row | Compound | hERG current change (%, negative = inhibition) at 10uM [%]
67 | CC(=O)OCC1OC(n2ncc(=O)n(Cc3ccccc3)c2=O)C(OC(C)=O)C1OC(C)=O (centres unmarked) | -1.56
68 | C=CC(n1cncn1)C(O)(c1ccccc1)c1ccccc1 (centres unmarked) | 13.3
69 | O=C(O)/C=C/C(=O)NCC1CCC(CNC(=O)/C=C/C(=O)O)CC1 (centres unmarked) | 7.79
70 | O=C(NC1(C(F)(F)F)NC(=O)N(Cc2cccnc2)C1=O)c1ccc(F)cc1 (centres unmarked) | -4.56
71 | CN(Cc1ccon1)C(=O)CC1C(=O)NCCN1CC(C)(C)C (centres unmarked) | 10.2
72 | CC(C)(C)NC(=O)COC(=O)c1ccc(NC(=O)CC#N)cc1 | 18.8
73 | CCC(CC)C(=O)c1c[nH]c(C(=O)OC)c1 | 10.7
74 | COc1ccc(C2C3C(C)=NN=C3CC(C)(O)C2C(C)=O)cc1 (centres unmarked) | 8.37
75 | O=C1c2ccccc2C(=O)N1CCCc1nc(-c2ccccc2)no1 | 1.83
76 | CC(=O)Nc1cccc(CNCc2cccc(NC(C)=O)c2)c1 | -2.82
77 | CC(C)(C)OC(=O)NCc1nc(N)n[nH]1 | 15.6
78 | Cc1nc(Cl)c(C(=O)NC(=O)Nc2cccc(C(F)(F)F)c2)c(C)c1[N+](=O)[O-] | 1.12
79 | COc1ccc(S(=O)(=O)CCC(=O)N2CCN(c3ccc(F)cc3)CC2)cc1 | -59.7
80 | CCOc1ccccc1NC(=O)Cn1c(=O)c2ccccc2n(CC)c1=O | -11.7
81 | CCn1c(SC(C)C(=O)NC2CCCc3ccccc32)nnc1-c1cccs1 (centres unmarked) | -34.5
82 | COc1ccccc1CNC(=O)c1ccccc1NS(C)(=O)=O | -10.1
83 | COc1ccc(CN2CCN(S(=O)(=O)c3ccc(F)cc3)CC2)cc1OC.O=C(O)C(=O)O | 7.33
84 | CC(C)C1C(C#N)=C(N)Oc2n[nH]c(-c3ccccc3)c21 (centres unmarked) | 4.31
85 | CNC(=O)c1nc(C)n(-c2ccc([N+](=O)[O-])cc2)n1 | -3.99
86 | CCCC1NC(=O)NC(C)=C1C(=O)OCC (centres unmarked) | 3.58
